# Measured values published in PubChem BioAssay AID1468 (National Center for Advancing Translational Sciences (NCATS), 2008).
# Hit rate of the full screen: of about 280,000 compounds, about 1,100 (0.39%) were called active. The inconclusive results got no clear call from the source; some entries with a clear call stand among them for comparison. Calls come from the whole dose curve; as a rule, active = well fitted inhibition curve with a large enough effect; inconclusive = small, poorly fitted or top-dose-only effect, or effect the other way; inactive = flat fitted curve, though single readings scatter. Potencies of inconclusive entries are left out as doubtful fits.
# Biological target: Microtubule-associated protein tau (Homo sapiens) (UniProt P10636)
# UniProt P10636, sequence (P10636 whole entry, looked up): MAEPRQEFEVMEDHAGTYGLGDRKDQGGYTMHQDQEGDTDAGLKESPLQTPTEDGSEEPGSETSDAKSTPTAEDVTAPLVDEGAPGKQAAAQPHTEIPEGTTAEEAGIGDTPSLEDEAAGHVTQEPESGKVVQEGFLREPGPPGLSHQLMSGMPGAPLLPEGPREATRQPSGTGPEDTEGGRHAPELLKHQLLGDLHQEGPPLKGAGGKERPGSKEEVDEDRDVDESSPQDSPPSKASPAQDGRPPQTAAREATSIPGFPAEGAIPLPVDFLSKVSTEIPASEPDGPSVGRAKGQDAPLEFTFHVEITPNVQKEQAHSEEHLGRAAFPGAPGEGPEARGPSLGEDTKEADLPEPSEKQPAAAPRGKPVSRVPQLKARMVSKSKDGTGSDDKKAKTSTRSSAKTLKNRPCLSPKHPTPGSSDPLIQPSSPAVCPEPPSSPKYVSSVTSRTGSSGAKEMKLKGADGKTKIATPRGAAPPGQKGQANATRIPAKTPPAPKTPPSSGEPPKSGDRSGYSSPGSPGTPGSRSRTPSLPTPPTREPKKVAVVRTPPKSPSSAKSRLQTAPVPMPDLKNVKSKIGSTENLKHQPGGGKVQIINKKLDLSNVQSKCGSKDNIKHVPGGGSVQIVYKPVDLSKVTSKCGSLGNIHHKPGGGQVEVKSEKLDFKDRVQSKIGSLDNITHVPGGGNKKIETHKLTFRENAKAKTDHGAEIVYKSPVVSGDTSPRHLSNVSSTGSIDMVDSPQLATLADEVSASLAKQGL
# Assay: qHTS for Inhibitors of Tau Fibril Formation, Fluorescence Polarization; note: nearly all actives have a fitted effect of over 55% in size
# Details: K18 P301L tau heparin fibrillization, Alexa594 FP, 6 h; series mostly up to 57.7 µM; activity, negative = inhibition: at the top concentration
# Summary of the method: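 Steps: dispense K18 P301L tau (15 uM plus 0.24 uM Alexa 594 tracer, final) in pH 7 sodium acetate; add compound; add heparin (20 uM final); incubate 6 hr, 37 C; add ThT (30 uM final); after 1 hr ambient, read FP.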
# % is set by controls: 0 for no effect and ±100 for the full control effect; potency is the fitted concentration of half-maximal effect; tags give direction and shape of the fitted curve.
SMILES,Potency,"activity, negative = inhibition"
O=C(COC(=O)c1ccc(O)cc1)Nc1cccc(S(=O)(=O)N2CCCCC2)c1,"inconclusive [inhibitor, partial curve, poor fit]",
Cc1cccc(-n2ncc3c(NCc4ccccn4)ncnc32)c1,"inconclusive [inhibitor, partial curve, poor fit]",
CCSc1ncc(Cl)c(C(=O)Nc2ccc(S(=O)(=O)N3CCCCC3CC)cc2)n1 (configuration not stated),"inconclusive [inhibitor, partial curve]",
CCOc1ccc(NC(c2ccc(Cl)cc2)c2nnc(-c3cccc(F)c3)o2)cc1 (configuration not stated),"inconclusive [activator, partial curve]",
N#CCc1nc(-c2cc3ccccc3oc2=O)cs1,"inconclusive [activator, partial curve]",
Cc1ccc(-c2cc(C(=O)O)c3cc(Br)ccc3n2)o1,"inconclusive [inhibitor, single point]",
N#CC1=C(S)N(c2ccccc2)C(c2ccc(-c3cc(Cl)ccc3Cl)o2)NC1=O (configuration not stated),"inconclusive [inhibitor, single point]",
COC(=O)c1ccc(NC(=O)CN(Cc2ccc(Cl)cc2)S(C)(=O)=O)cc1,"inconclusive [inhibitor, partial curve]",
CCN(C(=O)Cn1cc(C(C)=O)c2ccccc21)c1ccccc1,"inconclusive [inhibitor, single point]",
CCc1ccc(NCc2cc3ccc(OC)cc3n(CC(=O)Nc3ccccc3OC)c2=O)cc1,"inconclusive [activator, full curve]",
COc1ccc(C(=O)Nc2ccccc2)cc1S(=O)(=O)Nc1ccc(Br)cc1,"inconclusive [inhibitor, partial curve]",
COCCn1c(C)cc(C(=O)CSc2nc3ccccc3o2)c1C,,inactive: 0.583%
Cc1ccc2nc(NC(=O)CCNS(=O)(=O)c3ccc(Br)s3)sc2c1,"inconclusive [inhibitor, partial curve]",
O=C(Nc1ccc(-c2nnc3n2CCCCC3)cc1)c1ccco1,,inactive: -2.39%
CC(C)c1ccc(S(=O)(=O)c2nnn3c2nc(NCc2cccs2)c2sccc23)cc1,"inconclusive [inhibitor, full curve]",
Cc1ccc(C2=NN(S(=O)(=O)c3ccccc3)C(c3ccccc3O)C2)cc1 (configuration not stated),"inconclusive [inhibitor, partial curve]",
Cc1ccc(NC(=O)CCn2nc(-c3ccccc3)c3ccccc3c2=O)c(C)c1,,inactive: 10.2%
CCc1ccc(C2=C(C)C(N3CCC(C(=O)Nc4ccc(F)cc4)CC3)=NS2(=O)=O)cc1,,inactive: -8.98%
O=C1/C(=C\c2cccnc2)CN(Cc2ccccc2)C/C1=C\c1cccnc1,"inconclusive [inhibitor, partial curve]",
O=C(N/N=C\c1ccc(O)c([N+](=O)[O-])c1)c1ccccc1-n1cccc1,,inactive: 4.6%
COc1ccc(C2/C=C\CN(C(=O)C3CC3)[C@H](Cc3ccccc3)C(=O)N2Cc2ccc(F)cc2)cc1 (some centres not stated),,inactive: -0.354%

SMILES,Potency,"activity, negative = inhibition"
Cn1nc2c(c1C(=O)O)CCCC2,"inconclusive [inhibitor, single point]",
O=C(CSc1nncn1-c1ccccn1)Nc1cccc(Cl)c1,,inactive: -6.23%
O=C1c2ccccc2C2=Nc3ccccc3SC(c3cccc(F)c3)C12 (configuration not stated),"inconclusive [inhibitor, single point]",
COC(=O)CCCOc1ccc(Cl)cc1Cl,"inconclusive [inhibitor, single point]",
Cc1ccc(N2CSC3=C(C#N)C(c4cccs4)CC(=O)N3C2)cc1 (configuration not stated),"inconclusive [inhibitor, partial curve]",
O=c1[nH]c(/C=C/c2ccccc2OC(F)F)nc2c1cnn2-c1ccccc1,"inconclusive [inhibitor, partial curve]",
CCN(CC)S(=O)(=O)c1ccc2nc(NC(=O)c3ccccc3OC)sc2c1,,inactive: -8.79%
Cn1cc(C(=O)N/N=C/c2cc(Br)cs2)c2ccccc21,"inconclusive [inhibitor, single point]",
Cc1nonc1C1CCCN1C(=O)c1cc(COc2ccc(F)cc2Cl)on1 (configuration not stated),,inactive: 5.71%
O=C1C=C(O)c2ccccc2C1=O,"inconclusive [inhibitor, partial curve]",
CN(CCNC(=O)CCNC(=O)Cn1ccc2ccccc2c1=O)Cc1ccccc1,active: 22.4 µM,
CC(=O)/C=C/c1ccccc1O,"inconclusive [inhibitor, partial curve]",
O=C(COc1ccc(Cl)cc1)Nc1ccc(O)c(-c2nc3ccccc3s2)c1,"inconclusive [inhibitor, single point]",
CC(=O)OC[C@@H]1O[C@H](CCO/N=C(\C)CCN2CCCc3nc(C)c(C)cc32)C=C[C@@H]1OC(C)=O,,inactive: 7.5% [at 11.6 µM]
CCCCOc1ccc(C(=O)NCCS(=O)(=O)N2CCN(c3ccccc3OC)CC2)cc1,"inconclusive [activator, partial curve, poor fit]",
Cc1ccc2oc(-c3cc(NC(=O)Cc4ccccc4)ccc3Cl)nc2c1,"inconclusive [inhibitor, partial curve]",
COC(=O)c1sc(NC(=O)CSc2nnnn2-c2cccc(OC)c2)nc1C,"inconclusive [inhibitor, partial curve, poor fit]",
Cc1cccc(NC(=S)NNC(=O)c2csc3c2CCC(C)C3)c1 (configuration not stated),"inconclusive [inhibitor, single point]",
Cc1cc(Br)ccc1NC(=O)COc1cc(=O)n(C)c2ccccc12,"inconclusive [activator, single point]",
O=c1c(Cl)c(O)c2cccc3c4ccccc4n1c23,"inconclusive [inhibitor, partial curve, poor fit]",
Cc1ccc2nc3cc([N+](=O)[O-])cc([N+](=O)[O-])c3cc2c1,"inconclusive [inhibitor, partial curve, poor fit]",
